Measurements as given in the supplement of paper PMC12217912.
This is one part of the list. The full chains were built here from the parent and the listed change. Values near 0.05 are background.

B1: TEV protease; numbered along this chain (parent)
chain: MGESLFKGPRDYNPISSSICHLTNESDGHTTSLYGIGFGPFIITNKHLFRRNNGTLVVQSLHGVFKVKDTTTLQQHLVDGRDMIIIRMPKDFPPFPQKLKFREPQREERICLVTTNFQTKSMSSMVSDTSCTFPSGDGIFWKHWIQTKDGQCGSPLVSTRDGFIVGIHSASNFTNTNNYFTSVPKNFMELLTNQEAQQWVSGWRLNADSVLWGGHKVFMVKPEEPFQPVKEATQL

Variants of: B1
Test: raw area under fraction-flipped curve 0-4 h after induction (AUC4h, not background-subtracted), DNA-recorder readout of cleavage of the substrate (dimensionless); higher = more cleavage of the substrate by the protease variant
Settings: temperature: 34 °C; time window: 0-4 h after rhamnose induction
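Further: Bxb1 expression induced with 0.2% (w/v) L-rhamnose at OD600 near 0.5, cultures sampled hourly, flipped fraction per protease–substrate barcode pair counted by paired-end Illumina sequencing.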

Variant | area with substrate ENLYFES | area with substrate ENLYFFS | area with substrate ENLYFHS | area with substrate ENLYFIS | area with substrate ENLYFKS | area with substrate ENLYFMS | area with substrate ENLYFPS | area with substrate ENLYFRS | area with substrate ENLYFTS | area with substrate ENLYFLS | area with substrate ENLYFVS | area with substrate ENLYFYS | area with substrate ENLYFGS | area with substrate ENLYFNS | area with substrate ENLYFSS | area with substrate ENLYFWS
MGESLFKGPRDYNPISSSICHLTNESDGHTTSLYGIGFGPFIITNKHLFRRNNGTLVVQSLHGVFKVKDTTTLQQHLVDGRDMIIIRMPKDFPPFPQKLKFREPQREERICLVTTNFQTKSMSSMVSDTSCTFPSGDGIFWKHWIQTKDGQCGSPLVSTRDGFIVGIHSASNFTNTNNYFTSVPKNFHELLTNQEAQQWVSGWRLNADSVLWGGHKVFMVKPEEPFQPVKEATQL [M188H] | 0.0681 | 0.069 | 0.0603 | 0.0349 | 0.0795 | 0.0673 | 0.0588 | 0.0656 | 0.062 | – | – | – | – | – | – | –
MGESLFKGPRDYNPISSSICHLTNESDGHTTSLYGIGFGPFIITNKHLFRRNNGTLVVQSLHGVFKVKDTTTLQQHLVDGRDMIIIRMPKDFPPFPQKLKFREPQREERICLVTTNFQTKSMSSMVSDTSCTFPSGDGIFWKHWIQTKDGQCGSPLVSTRDGFIHGIHSASNFTNTNNYFTSVPKNFMELLTNQEAQQWVSGWRLNADSVLWGGHKVFMVKPEEPFQPVKEATQL [V165H] | 0.0457 | 0.0596 | – | 0.0533 | 0.0584 | – | 0.0511 | 0.044 | – | 0.0421 | 0.0397 | 0.0567 | – | – | – | –
MGESLFKGPRDYNPISSSICHLTNESDGHTTSLYGIGFGPFIITNKHLFRRNNGTLVVQSLHGVFKVKDTTTLQQHLVDGRDMIIIRMPKDFPPFPQKLKFREPQREERICLVTTNFQTKNMSSMVSDTSCTFPSGDGIFWKHWIQTKDGQCGSPLVSTRDGFIVGIHSASNFTNTNNYFTSVPKNFMELLTNQEAQQWVSGWRLNADSVLWGGHKVFMVKPEEPFQPVKEATQL [S121N] | 0.0727 | 0.0607 | 0.0523 | 0.0523 | 0.054 | 0.0816 | 0.0494 | 0.0578 | 0.0505 | 0.0564 | – | 0.0629 | 0.0619 | 0.0635 | – | –
MGESLFKGPRDYNPISSSICHLTNESDGHTTSLYGIGFGPFIITNKHLFRRNNGTLVVQSLHGVFKVKDTTTLQQHLVDGRDMIIIRMPKDFPPFPQKLKFREPQREERICLVTTNFQTKSMSSMVSDTSCTFPSGDIIFWKHWIQTKDGQCGSPLVSTRDGFIVGIHSASNFTNTNNYFTSVPKNFMELLTNQEAQQWVSGWRLNADSVLWGGHKVFMVKPEEPFQPVKEATQL [G138I] | 0.057 | – | – | – | – | 0.0576 | 0.0533 | 0.0385 | – | – | – | – | 0.063 | – | 0.064 | –
MGESLFKGPRDYNPISSSICHLTNESDGHTTSLYGIGFGPFIITNKHLFRRNNGTLVVQSLHGVFKVKDTTTLQQHLVDGRDMIIIRMPKDFPPFPQKLKFREPQREERACLVTTNFQTKSMSSMVSDTSCTFPSGDGIFWKHWIQTKDGQCGSPLVSTRDGFIVGIHSASNFTNTNNYFTSVPKNFMELLTNQEAQQWVSGWRLNADSVLWGGHKVFMVKPEEPFQPVKEATQL [I110A] | 0.0625 | – | – | 0.101 | – | – | – | – | – | – | – | – | – | – | – | 0.0457
MGESLFKGPRDYNPISSSICHLTNESDGHTTSLYGIGFGPFIITNKHLFRRNNGTLVVQSLHGVFKVKDTTTLQQHLVDGRDMIIIRMPKDFPPFPQKLKFREPQREERICLVTTNFQTKSMSSMVSDTSCTFPSGDGIFWKHWIQTKDGQCGSPLVSTRDGFIVGIHSLSNFTNTNNYFTSVPKNFMELLTNQEAQQWVSGWRLNADSVLWGGHKVFMVKPEEPFQPVKEATQL [A170L] | 0.0646 | 0.0628 | – | 0.0505 | 0.0368 | – | – | 0.0511 | 0.06 | – | – | – | – | – | 0.061 | –
MGESLFKGPRDYNPISSSICHLTNESDGHTTSLYGIGFGPFIITNKHLFRRNNGTLVVQSLHGVFKVKDTTTLQQHLVDGRDMIIIRMPKDFPPFPQKLKFREPQREERICLVTTNFQTKSMSSMVSDTSCTFPSGDGIFWKHWIQTKDGQCGSPLVSTRDGFIVGIHVASNFTNTNNYFTSVPKNFMELLTNQEAQQWVSGWRLNADSVLWGGHKVFMVKPEEPFQPVKEATQL [S169V] | 0.0557 | 0.0165 | 0.0585 | 0.059 | – | – | 0.0493 | – | 0.0789 | 0.0577 | – | 0.0511 | – | 0.0516 | 0.0563 | –
MGESLFKGPRDYNPISSSICHLTNESDGHTTSLYGIGFGPFIITNKHLFRRNNGTLVVQSLHGVFKVKDTTTLQQHLVDGRDMIIIRMPKDFPPFPQKLKFREPQRTERICLVTTNFQTKSMSSMVSDTSCTFPSGDGIFWKHWIQTKDGQCGSPLVSTRDGFIVGIHSASNFTNTNNYFTSVPKNFMELLTNQEAQQWVSGWRLNADSVLWGGHKVFMVKPEEPFQPVKEATQL [E107T] | 0.0379 | – | – | 0.0415 | – | – | 0.0603 | 0.0682 | 0.0604 | – | – | – | – | 0.0607 | – | –
MGESLFKGPRDYNPISSSICHLTNESDGHTTSLYGIGFGPFIITNKHLFRRNNGTLVVQSLHGVFKVKDTTTLQQHLVDGRDMIIIRMPKDFPPFPQKLKFREPQRQERICLVTTNFQTKSMSSMVSDTSCTFPSGDGIFWKHWIQTKDGQCGSPLVSTRDGFIVGIHSASNFTNTNNYFTSVPKNFMELLTNQEAQQWVSGWRLNADSVLWGGHKVFMVKPEEPFQPVKEATQL [E107Q] | 0.0674 | 0.0699 | 0.059 | 0.0383 | 0.0745 | 0.0673 | 0.0645 | 0.0521 | 0.0602 | – | 0.0599 | – | 0.0707 | – | 0.056 | 0.0573
MGESLFKGPRDYNPISSSICHLTNESDGHTTSLYGIGFGPFIITNKHLFRRNNGTLVVQSLHGVFKVKDTTTLQQHLVDGRDMIIIRMPKDFPPFPQKLKFREPQREERICLVTTNFQTKSMSSMVSDTSCTFPSGDGIFWKHWIQTKDGQCGSPLVSTRDGFIVGIHSASNFTNTNNYYTSVPKNFMELLTNQEAQQWVSGWRLNADSVLWGGHKVFMVKPEEPFQPVKEATQL [F180Y] | 0.0687 | 0.078 | 0.0636 | 0.0578 | – | 0.0629 | 0.0028 | – | – | – | – | 0.0536 | – | – | 0.0557 | 0.0519
